From PubChem BioAssay AID256 (DTP/NCI, 2004)
Inconclusive results and toxic doses are left out. Not every entry of the source has a single result; some have several. They are shown here; other results are not. The source may hold further records. Values given together differ, and nothing given here explains why; they may come from other doses, times, organisms or constructs than stated.

System: CD2F1 mice, L1210 leukemia ip, survival T/C
Test: NCI In Vivo Anticancer Drug Screen. Data for tumor model L1210 Leukemia (intraperitoneal) in CD2F1 (CDF1) mice
Conditions: endpoint: median survival time; dose: 0.19 mg/kg/injection; schedule: Q01DX009 (ip); vehicle: saline; higher = longer survival
Summary of the method: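 In this screen, transplantable tumors were grown in mice given either the compound or its vehicle. Results were expressed as the treated measurement relative to the control measurement.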

NCCCNCCCCNC(=O)C(O)NC(=O)CCCCCCN=C(N)N (stereo unspecified)
T/C: 121 % of control and 155 % of control
